In PubChem BioAssay AID1030 (National Center for Advancing Translational Sciences (NCATS), 2008):
About 16,000 (7.3%) of roughly 220,000 compounds were called active. Inconclusive means that the source gave no clear call. Such entries were picked first, then a sample of the others. The call rests on the fitted dose curve; in most records, active means well fitted inhibition curve with a large enough effect (not every such curve was filed as active); inconclusive means small, poorly fitted or top-dose-only effect, or another doubt; inactive means no such curve, though single readings can be large or run the other way. Potencies beside an inconclusive call are fits to weak or partial responses and may not hold up.

target: Aldehyde dehydrogenase 1A1 (Homo sapiens) (UniProt P00352); assay: qHTS Assay for Inhibitors of Aldehyde Dehydrogenase 1 (ALDH1A1); conditions: Purified ALDH1A1, NADH fluorescence, propionaldehyde substrate; series mostly up to 75.3 µM; activity, negative = inhibition: at the top concentration;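 on activity, negative = inhibition: plate controls were no enzyme wells and a reference inhibitor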
Potency means the concentration at half of the fitted maximal effect; tags describe the fitted curve by direction and shape.

Chain of UniProt P00352 (P00352 whole entry, looked up): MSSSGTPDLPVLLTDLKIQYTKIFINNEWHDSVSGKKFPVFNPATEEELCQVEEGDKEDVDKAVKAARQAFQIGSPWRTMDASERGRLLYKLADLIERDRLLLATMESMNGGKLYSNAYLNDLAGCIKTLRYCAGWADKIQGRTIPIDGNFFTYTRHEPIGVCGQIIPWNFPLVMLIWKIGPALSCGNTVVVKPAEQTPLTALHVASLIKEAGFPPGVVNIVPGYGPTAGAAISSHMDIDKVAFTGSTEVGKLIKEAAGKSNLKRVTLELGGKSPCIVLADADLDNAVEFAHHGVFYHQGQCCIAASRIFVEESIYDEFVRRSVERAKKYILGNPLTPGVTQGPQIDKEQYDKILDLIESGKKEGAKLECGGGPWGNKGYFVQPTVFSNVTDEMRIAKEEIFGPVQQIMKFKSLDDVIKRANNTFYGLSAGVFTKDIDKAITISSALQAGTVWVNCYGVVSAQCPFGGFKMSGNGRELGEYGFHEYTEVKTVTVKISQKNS

Potency, active:
O=[N+]([O-])c1ccc(S(=O)(=O)N2CCSC2c2ccco2)cc1 (configuration not stated) 3.98 µM, CCOC(=O)c1c(C)nc(C)c(C(=O)OCC)c1-c1ccc(O)c(OC)c1 15.8 µM, O=C(NCc1ccco1)C1CCCN(S(=O)(=O)c2ccc(-n3cnnn3)cc2)C1 (configuration not stated) 25.1 µM, CC1(C)CC(=O)C(N=Nc2cc(Cl)c(Cl)c(Cl)c2)=C(O)C1 5.01 µM, CCOC(=O)c1c(-c2ccc(OC)cc2)csc1NC(=O)CCN1C(=O)c2ccccc2C1=O 35.5 µM, Cc1ccc(CSc2ccc(-c3ccc4c(c3)OCO4)nn2)cc1 11.2 µM, CCOC(=O)c1cc(C)[nH]c(=S)c1C#N 20 µM, NNc1ccccc1C(F)(F)F 17.8 µM, Cc1cc(C)n(S(=O)(=O)c2ccc(C(C)(C)C)cc2)n1 12.6 µM, CC1CCN(c2ccccc2NC(=S)NC(=O)C(C)(C)C)CC1 1.26 µM, COCCn1c(=O)c(CCc2ccccc2)nc2cnc(Oc3cccc(Cl)c3)nc21 14.1 µM

Potency, inconclusive:
O=C(O)C1=C(C(=O)N2CCN(C(=O)c3ccco3)CC2)CCCC1 35.5 µM [inhibitor, single point], O=c1c2cccnc2n(-c2ccccc2)n1Cc1c(Cl)cccc1Cl 31.6 µM [inhibitor, partial curve], COc1ccc(C(=O)CSc2nnc(-c3cc(C)on3)o2)cc1 0.794 µM [inhibitor, partial curve], CCC(=O)Nc1cccc(C(=O)c2ccc(C)c(C)c2)c1 39.8 µM [inhibitor, single point], COc1ccc(C(=O)N2CCn3c(C)ccc3C2C)cc1 (configuration not stated) 35.5 µM [inhibitor, single point], CSCC[C@H](NC(=O)COc1ccc(Cl)cc1Cl)c1nc2ccccc2[nH]1 39.8 µM [inhibitor, single point], COC1=C(c2ccccc2)C(=O)c2ccccc2C1=O 39.8 µM [inhibitor, single point], CS(=O)(=O)NN1C(=O)c2ccccc2NC1c1cccc(O)c1 (configuration not stated) 31.6 µM [inhibitor, partial curve], COc1cc(/C=C/C2=NC(=O)C(C)(C)O2)ccc1O 39.8 µM [inhibitor, single point], CCOC(=O)c1cc(-c2ccccc2)sc1NC(=O)C(C)N1C(=O)NC(C)(c2ccc(Cl)cc2)C1=O (configuration not stated) 37.7 µM [inhibitor, single point], COc1ccc(-c2cc(C(=O)Oc3ccc([N+](=O)[O-])cc3)c3ccccc3n2)cc1 23.8 µM [inhibitor, partial curve], CCOC(=O)C1(CCCc2ccccc2)CCN(C(=O)c2cnn(CC)c2)CC1 23.8 µM [inhibitor, partial curve], CC(C)OC(=O)c1c(NC(=O)c2ccco2)sc2c1CCCCC2 20 µM [inhibitor, partial curve], CCOC(=O)c1nn(-c2ccccc2)c(=O)cc1SC1CCCCC1 44.7 µM [inhibitor, single point], Cn1c(=O)n(CCc2ccccc2)c(=O)c2c1nc1n2CCN1Cc1ccco1 35.5 µM [inhibitor, single point], Cc1c(NC(=O)CSc2nnc3c4ccccc4n(CCc4ccccc4)c3n2)c(=O)n(-c2ccccc2)n1C 39.8 µM [inhibitor, single point], CC1CCc2c(sc(NC(=O)C3c4ccccc4Oc4ccccc43)c2C(N)=O)C1 (configuration not stated) 35.5 µM [inhibitor, single point], COc1cccc(N2CCN(C(=O)CN(C)S(=O)(=O)c3ccc4c(c3)CCC(=O)N4)CC2)c1 31.6 µM [inhibitor, single point], CCC1CCCCN1C(=O)CSc1nnc(-c2ccc3c(c2)OCCO3)o1 (configuration not stated) 10 µM [inhibitor, partial curve], O=c1c2c(nc3c(-c4ccccc4)c[nH]n13)CCC2 39.8 µM [inhibitor, single point], O=C(O)CN1C(=O)/C(=C\c2cn(CC(=O)N3CCOCC3)c3ccccc23)SC1=S 35.5 µM [inhibitor, single point], COc1ccc(C2C(C#N)=C(N)N(Nc3ccccc3)C3=C2C(=O)CC(C)(C)C3)cc1C (configuration not stated) 8.91 µM [inhibitor, single point], N#CCCn1cc(/C=N/O)c(-c2cccc([N+](=O)[O-])c2)n1 39.8 µM [inhibitor, single point], O=C(CCCOc1ccc(Cl)cc1Cl)NCC1CCCO1 (configuration not stated) 31.6 µM [inhibitor, single point], O=C(CSc1ncn[nH]1)c1cccc([N+](=O)[O-])c1 39.8 µM [inhibitor, single point], CC1CC(C)CN(c2cc(=O)n(Cc3ccc(F)cc3)c(=O)[nH]2)C1 (configuration not stated) 15.8 µM [inhibitor, partial curve], COc1ccc(C(=O)N(CN2CCCC2=O)c2nccs2)cc1OC 25.1 µM [inhibitor, single point], COc1ccccc1CNC(=O)CN1CCN(S(=O)(=O)c2cccs2)CC1 37.7 µM [inhibitor, single point], COc1ccc(NC(=O)C2CCN(C(=O)c3cccs3)CC2)cc1 17.8 µM [inhibitor, partial curve], CC1(C)CC2CC(C)(CN2Cc2c(O)ccc3ccccc23)C1 (configuration not stated) 35.5 µM [inhibitor, single point], COc1cc(/C=C(\C#N)C(=O)NCC2CCCO2)cc(OC)c1OC (configuration not stated) 11.2 µM [inhibitor, partial curve], CN1C(=O)NC(NS(=O)(=O)c2ccc(N)cc2)(C(F)(F)F)C1=O (configuration not stated) 39.8 µM [inhibitor, single point], COc1ccc(CC(=O)Nc2ccc(-c3noc(-c4ccccc4OC)n3)cc2)cc1 35.5 µM [inhibitor, single point], O=C(C[n+]1ccc(C(=O)NCc2ccccc2)cc1)c1ccc(OC(F)F)cc1 1.78 µM [inhibitor, partial curve], CCCn1c(=O)c(C(=O)NCc2ccccn2)c(O)c2ccccc21 23.8 µM [inhibitor, partial curve], CCc1c(C)sc(NC(=S)Nc2nc(C)cc(C)n2)c1C(=O)OC 39.8 µM [inhibitor, single point], Cc1ccc(NS(=O)(=O)c2cccc(C(=O)N3CCOCC3)c2)cc1 35.5 µM [inhibitor, single point], Cc1ccc(NC(=O)c2ccc(OC(=O)CCN3C(=O)c4ccccc4C3=O)cc2)cc1 28.2 µM [inhibitor, single point], CCN(CC)S(=O)(=O)c1ccc2c(c1)C(=NO)c1cc(S(=O)(=O)N(CC)CC)ccc1-2 22.4 µM [inhibitor, partial curve], Cc1ccc2nc(-c3ccc(NS(=O)(=O)c4ccc(F)c(F)c4)cc3)sc2c1 20 µM [inhibitor, partial curve], Cc1nc([N+](=O)[O-])c(C(=O)OCc2ccccc2)n1C 15.8 µM [inhibitor, single point], CC(=O)Nc1nnc(-c2ccccn2)o1 37.7 µM [inhibitor, single point], CCCC1c2ccc(C)n2CCN1C(=O)Nc1ccc(F)cc1 (configuration not stated) 39.8 µM [inhibitor, single point], Cn1cc(CNC(=O)c2cc(-c3ccc(Br)cc3)nc3ccccc23)cn1 18.9 µM [inhibitor, partial curve]

activity, negative = inhibition, inactive:
O=c1cc(-c2ccccc2O)oc2cc(O)cc(O)c12 -14.2%, CSCCC(NC(=O)c1ccccc1)C(=O)NC1CCCC1 (configuration not stated) 0.164%, Cc1cc(C(F)(F)F)nc(SCC(=O)Nc2cc(C)on2)n1 21%, CN1CCC2(CCN3CCc4c(oc5ccccc45)C3C2)N(C)C1=O (configuration not stated) 1.37%, O=C(CNC(=O)c1ccc(-c2ccccc2)cc1)OCc1c(Cl)cccc1Cl 2.89%, O=C(Oc1ccc(-c2ccccc2)cc1)N1CCCCC1 -0.0649%, Cc1cc(C)nc(-n2nc(C)cc2NC(=O)c2ccc(S(=O)(=O)N3CCOCC3)cc2)n1 16.5%, COC(=O)C1=NNCC12CC(=O)N(c1ccc(Br)cc1)C2=O (configuration not stated) -6.54%, CCOC(=O)c1[nH]c2ccccc2c1NC(=O)c1ccc(S(=O)(=O)N2CCCCC2)cc1 15.4%, O=C(O)Cc1nn(Cc2ccc(Cl)cc2)c(=O)c2ccccc12 11.8%, Cc1cc(Cl)c2ccc3ccccc3c2n1 -14.6%, CNc1cc(-c2ccccc2C)ncn1 4.34%, CCSC1=C(C#N)C(c2cccc(OC)c2)CC(=O)N1 (configuration not stated) -12.7%, C#CCNC(=O)C1=C[C@H](C2CCCCC2)[C@@H](CCCO)[C@H](OCC)O1 -7.92%, CCOC(=O)c1cc(C#N)c(N2CCN(c3ccc(OC)cc3)CC2)[nH]c1=O -9.89%, COc1ccccc1NC(=S)N(Cc1ccco1)Cc1cc2cc(C)cc(C)c2[nH]c1=O -0.337%, COc1cc(C(=O)N2CCOCC2)cc(OC)c1OC 12.8%
